Drawing on PubChem BioAssay AID488969 (Vanderbilt High Throughput Screening Facility, 2010), this text covers z-score for 105 compounds.

The full ranking holds about 110,000 compounds; the median of “z-score” is about -0.1, and the highest 2% start at about 2. The list shows a part of the results. Active and inactive are the calls of the source.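 Rule for the calls: active = z-score in the third read window above 3 or below -3; inactive = the rest.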

In this assay the target is Metabotropic glutamate receptor 8 (Rattus norvegicus) (UniProt P70579). In words: mGluR8 Gi/Go-coupled signaling modulation – cell-based, rat, thallium flux, HTS, primary screen (AID 488969). The following applies: HEK293 rat mGluR8, GIRK (G protein-gated inwardly rectifying potassium channel) thallium flux, FluoZin2; at 10 µM; stronger effect = higher value; submaximal glutamate (EC20) added with thallium.
Sequence of UniProt P70579 (P70579 whole entry, looked up): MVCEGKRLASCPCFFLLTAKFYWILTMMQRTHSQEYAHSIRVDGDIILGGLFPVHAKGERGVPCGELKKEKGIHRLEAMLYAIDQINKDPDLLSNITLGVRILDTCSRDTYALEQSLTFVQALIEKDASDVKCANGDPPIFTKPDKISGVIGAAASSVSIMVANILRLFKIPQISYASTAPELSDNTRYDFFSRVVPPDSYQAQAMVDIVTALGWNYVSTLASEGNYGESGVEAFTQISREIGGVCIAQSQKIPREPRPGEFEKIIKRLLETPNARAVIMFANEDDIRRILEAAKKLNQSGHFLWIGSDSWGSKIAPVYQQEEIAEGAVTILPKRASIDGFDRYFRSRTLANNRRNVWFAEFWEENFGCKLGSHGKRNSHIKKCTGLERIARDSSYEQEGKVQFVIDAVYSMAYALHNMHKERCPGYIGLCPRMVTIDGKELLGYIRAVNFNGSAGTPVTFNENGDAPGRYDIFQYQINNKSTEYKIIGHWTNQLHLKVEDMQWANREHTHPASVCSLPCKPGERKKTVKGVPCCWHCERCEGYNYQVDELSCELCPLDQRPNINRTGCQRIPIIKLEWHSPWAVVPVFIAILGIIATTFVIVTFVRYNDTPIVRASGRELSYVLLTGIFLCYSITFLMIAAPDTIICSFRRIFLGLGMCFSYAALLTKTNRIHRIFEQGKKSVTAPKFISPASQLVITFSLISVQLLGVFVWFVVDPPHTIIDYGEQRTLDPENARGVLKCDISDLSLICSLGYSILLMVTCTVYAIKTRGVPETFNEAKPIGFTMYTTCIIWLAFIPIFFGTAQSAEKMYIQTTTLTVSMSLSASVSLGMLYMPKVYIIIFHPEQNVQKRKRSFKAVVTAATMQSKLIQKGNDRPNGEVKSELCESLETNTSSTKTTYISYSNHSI
For the compound `O=c1c2ccccc2nc(/C=C/c2ccc([N+](=O)[O-])cc2)n1CCCO`, the z-score is -0.134.
To `O=C(NCc1cccnc1)C1CCCN(S(=O)(=O)c2ccccc2)C1` (stereo not given) belongs -0.0962; to `Cc1cccc(CC(Cc2nc3ccccc3[nH]2)c2nc3ccccc3[nH]2)c1` (stereo not given), -0.798.
Compound `CC(C)CN1C(=O)C(=O)N(CC(=O)NCc2ccc3c(c2)OCO3)C1=O` returned a z-score of 0.435.
Take `CC(=O)c1c(N2CCC(C(N)=O)CC2)nc(=S)n(-c2ccccc2)c1C`: the z-score came out at 0.608.
In turn, `Fc1ccc(CNc2nc(-c3ccco3)cc(C(F)(F)F)n2)cc1` displayed a z-score of 0.667.
Take `O=C(CSc1c2c(nc3ccc(Cl)cc13)CCCC2)NCc1ccco1`: the z-score was -0.409.
Compound `COc1ccc(CCNC(=O)CSc2ccc(-c3ccccc3)nn2)cc1OC` had a z-score of -0.204.
`COc1ccccc1N1CCN(C(=O)c2cc(-c3ccco3)on2)CC1` showed a z-score of -0.34.
The compound `Cc1cc(C(=O)NCC(=O)OC(C(=O)Nc2cc(C(F)(F)F)ccc2Cl)c2ccccc2)ccc1[N+](=O)[O-]` (stereo not given) had a z-score of -0.197.
With `O=S(=O)(c1ccc(F)cc1)n1ccc(-c2cccc(OCc3c(F)cccc3Cl)c2)n1` the figure was -0.0878.
In the case of `Cn1c(SCC(=O)N2CCCc3ccccc32)nc2cccnc21`, the z-score amounted to 0.176.
To `CC(=O)NCCc1ccc(S(=O)(=O)NC2OC(=O)c3ccccc32)cc1` (stereo not given) belongs -0.106; to `O=c1c2ccccc2nc(SCc2nc3ccccc3s2)n1Cc1ccco1`, -0.0748; to `CNC(=O)CN(C1CCCCC1)S(=O)(=O)c1ccc(F)cc1`, -0.154.
With `O=C(CCn1c(=S)[nH]c2ccccc2c1=O)N1CCOCC1` the figure was 0.695; with `O=C(CNc1cccc(C(F)(F)F)c1)N/N=C/C1CCCCC1`, 0.0428; with `O=C(CSc1nc2ccccc2c(=O)n1-c1ccccc1F)Nc1ccc2c(c1)CCC2`, -0.694.
For the compound `O=C(CN1CCN(c2ccc(Cl)cc2)CC1)Nc1ccc(F)cc1`, the z-score was -0.454.
In turn, `O=C(CN1CCN(c2nc(-c3ccccc3)cs2)CC1)Nc1ccc2c(c1)OCO2` had a z-score of -0.333.
Regarding `O=C(COC(=O)c1ccccn1)NCc1ccccc1`, the z-score stood at 0.0411.
`CC(C)Cn1c(SCC(=O)N2CCN(S(=O)(=O)c3ccccc3)CC2)nc2ccccc21` had a z-score of -1.15.
For the compound `O=C(OCC(=O)C12CC3CC(CC(C3)C1)C2)c1cccnc1Cl`, the z-score was -0.186.
Take `Cc1nnc(Sc2nc3c(c(=O)n(C)c(=O)n3C)n2Cc2ccccc2Cl)s1`: the z-score was 0.33.
Compound `COc1ccccc1/C=N/NC(=O)C(C)Cn1cnc2ccccc21` (stereo not given) had a z-score of -0.733.
To `Cc1c(C2(c3c(C)n(C)n(-c4ccccc4)c3=O)C(=O)Nc3ccc(F)cc32)c(=O)n(-c2ccccc2)n1C` belongs -0.0683; to `COc1ccc(CNC(=S)Nc2cc(C)ccc2C)cc1`, 0.143; to `COc1ccc(CCNCCC(=O)Nc2c(C)cc(C)cc2C)cc1OC`, -0.384.
In the case of `COc1ccc(C)cc1S(=O)(=O)N1CCC(C(=O)N2CCOCC2)CC1`, the z-score stood at 0.353.
With `Cc1ccc(Cc2nnc3n(-c4ccccc4)nc(C(=O)c4ccccc4)n3c2=O)cc1`, the z-score stood at 0.0848.
`Cc1ncc([N+](=O)[O-])n1CCOC(=O)Nc1ccc([N+](=O)[O-])cc1` returned a z-score of 0.0381.
With `Cc1ccc(S(=O)(=O)/N=C2\SC(CC(=O)Nc3ccc(F)cc3)C(=O)N2c2ccccc2)cc1` (stereo not given), the z-score is -0.0863.
`CCCCCCC(=O)Nc1nc(C)c(-c2csc(Nc3cc(Cl)ccc3OC)n2)s1` registered a z-score of -0.23.
To `Cc1nc(NC(=O)c2cc3c(C)nn(-c4ccccc4)c3s2)sc1C(=O)Nc1ccccc1` belongs -0.0609.
`Cc1[nH]nc2c1C1(C(=O)Nc3ccc([N+](=O)[O-])cc31)C(C#N)=C(N)O2` (stereo not given) had a z-score of -0.327.
`O=C(CCn1nc(-c2ccc(Cl)cc2)ccc1=O)N1CCN(c2ccccn2)CC1` yielded a z-score of 0.0631.
With `CC(OC(=O)C1CCN(S(=O)(=O)c2ccc(Cl)cc2)CC1)C(=O)N1CCc2ccccc21` (stereo not given) the figure was -0.126.
To `CC(C)(C)Nc1nc(OCC(F)(F)F)nc(OCC(F)(F)F)n1` belongs -0.268; to `CC(C)CCn1c(=O)c2ccccc2n2c(CN(C)Cc3ccccc3)nnc12`, 0.222; to `O=C(c1ccccc1[N+](=O)[O-])N1CCC(Cc2ccccc2)CC1`, -0.0322.
`CC(C)CC(c1nnnn1C(C)C)N1CCN(c2ccccc2)CC1` (stereo not given) gave a z-score of 0.0668.
`CC(C)CCNC(=O)CCCOc1cc(=O)n(C)c2ccccc12` had a z-score of -0.0449.
`Cn1cnnc1SCC(=O)Nc1cc(S(=O)(=O)N2CCCCCC2)ccc1Cl` came in with a z-score of -0.301.
To `Cn1c(N2CCOCC2)c(/C=N/OC(=O)c2ccc(F)cc2)c2ccccc21` belongs -0.268.
Compound `CCn1c(=O)cc(SCC(=O)N2CCN(C3CCCCC3)CC2)c2ccccc21` came in with a z-score of -0.174.
To `CCSc1ccccc1C(=O)n1nnc2ccccc21` belongs -1.25; to `CCOC(=O)CSc1nnc(-c2nnc(SCC(=O)OCC)n2CC)n1CC`, -0.379.
For `COc1ccc(CCn2c(=O)[nH]c3cc(C(=O)NCCN4CCOCC4)ccc3c2=O)cc1OC`, the z-score is 0.716.
For `NC(=O)c1cnn2c(C(F)(F)F)cc(-c3ccccc3)nc12`, the z-score is -0.118.
In the case of `CC(C)NC(=O)c1ccccc1NC(=O)CCc1ccccc1`, the z-score is -0.0539.
With `CC(=O)N(CCCN1CCOCC1)Cc1ccncc1` the figure was -0.261.
Turning to `Cc1nc(C)c(-c2csc(NCc3ccccc3)n2)s1`, the z-score was -0.34.
The compound `CN(Cc1ccccc1F)c1nc(-c2cccs2)nc2ccccc12` displayed a z-score of 0.11.
With `COc1nc(NCCc2ccc(OC)c(OC)c2)nc(OC)n1` the figure was -0.163; with `COCCNC(=O)Cn1c(=O)n(Cc2ccco2)c(=O)c2ccccc21`, -0.358.
Regarding `CCC(=O)Nc1ccc(N2CCCCC2)cc1`, the z-score is -0.169.
With `COc1cccc(-n2c(SCC(=O)Nc3ccc4c(c3)CCC4)nc3ccccc3c2=O)c1` the figure was -0.242; with `O=C(COC(=O)C1=Cc2ccccc2OC1)NC1CCCC1`, -0.184; with `C=CCn1c(SCC(=O)c2ccc(Br)cc2)nnc1C(C)NC(=O)Cc1ccc(OC)cc1` (stereo not given), -0.194.
`CN(C)CCN(C)Cc1ccccc1Sc1cccc2ccccc12` showed a z-score of 0.946.
For the compound `COc1cc(C=O)ccc1OCCOCCOc1ccc(Cl)cc1Cl`, the z-score is -0.324.
`Cc1ccccc1C(=O)c1ccc2c(c1)n(C)c(=O)n2C` registered a z-score of 0.329.
For the compound `O=C(CN1C(=O)c2cccc3cccc(c23)C1=O)N1CCN(Cc2ccc3c(c2)OCO3)CC1`, the z-score amounted to 0.769.
Compound `CC(=O)NC1=C(NC2CCS(=O)(=O)C2)C(=O)c2ccccc2C1=O` (stereo not given) displayed a z-score of 0.236.
For the compound `O=C(Nc1ccc2c(c1)OCCO2)c1cc(-n2cnnc2)ccc1Cl`, the z-score came out at 0.0457.
In turn, `CC(C)OCCCNC(=O)CCSc1ccc(Cl)cc1` gave a z-score of -0.502.
To `COc1ccc(-n2c(CNc3ccc(C)cc3)nnc2SCc2ccccc2)cc1` belongs -0.47.
In turn, `Cc1cc(C)c(S(=O)(=O)n2c([N+](=O)[O-])cnc2C)cc1C` yielded a z-score of 0.127.
In turn, `O=C(Nc1cccc(NC(=O)C2CC2)n1)C1CC1` had a z-score of -0.152.
`CN(C)c1nc(-c2ccccc2)nc(-c2ccc(Cl)cc2)c1C#N` showed a z-score of 0.0496.
Take `COc1ccc(NC(=O)CSc2ncnc3c2cnn3Cc2ccccc2)cc1`: the z-score was -0.237.
To `COc1ccc(S(=O)(=O)Nc2cccc(NC(C)=O)c2)cc1` belongs 0.142; to `Cc1cccc(N2Cc3ccccc3C2=NC(=O)c2ccc(Cl)nc2)c1`, 0.324; to `COc1cc(-c2cc(C(=O)Nc3ccc(S(=O)(=O)NCc4ccco4)cc3)c3ccccc3n2)cc(OC)c1OC`, -0.615.
For `Cc1ccc(S(=O)(=O)N(CC(=O)N2CCC(C)CC2)Cc2ccccc2F)cc1`, the z-score came to 1.38.
Compound `COc1ccc(NC(=O)CSc2nc3c(c(=O)n2-c2ccc(F)cc2)SCC3)c(OC)c1` gave a z-score of -0.389.
`COc1ccc(NC(=O)CN2CCN(CC(=O)Nc3ccccc3Cl)CC2)cc1` yielded a z-score of -0.12.
With `O=C(Nc1ccc(S(=O)(=O)C(F)F)cc1)c1cccc(S(=O)(=O)N2CCOCC2)c1` the figure was 0.0646; with `O=C(Cn1cc([N+](=O)[O-])cn1)Nc1ccccn1`, -0.403; with `CC1=C(C#N)C(c2ccc(O)cc2)C2=C(CC(C)(C)CC2=O)N1` (stereo not given), 0.166.
Consider `O=C(c1ccccc1NS(=O)(=O)c1ccc(F)cc1)N1CCCC1`, for which the z-score is -0.104.
`Cc1cc(=O)[nH]c2c1c(C)nn2C1CCOC(C)(C)C1` (stereo not given) yielded a z-score of 0.191.
`Cc1ccc(S(=O)(=O)NCCSC(C)(C)C)cc1` yielded a z-score of -0.0832.
To `CCOP(=O)(c1ccccc1)c1nc(-c2ccc(F)cc2)oc1N1CCCCC1` (stereo not given) belongs -1.63; to `COc1ccc(-c2noc(C(C)n3nc(C)c([N+](=O)[O-])c3C)n2)cc1OC` (stereo not given), -0.0624.
`O=C(N/C(=C/c1ccc2c(c1)OCO2)C(=O)N1CCOCC1)c1cccs1` yielded a z-score of -0.358.
The compound `COc1cc(NC(=O)C2CCCN(S(=O)(=O)c3ccc4c(c3)oc(=O)n4C)C2)cc(OC)c1` (stereo not given) had a z-score of 0.205.
Turning to `COc1ccc(S(=O)(=O)N(CC(=O)Nc2cccnc2)c2ccccc2OC)cc1`, the z-score is -0.332.
As for `COC(=O)N/N=C/c1cc(Cl)cc(Cl)c1OCc1ccccc1F`, the z-score turned out to be 0.623.
Regarding `O=C(Nc1ccccc1)C(=O)c1cn(CC(=O)N2CCCCC2)c2ccccc12`, the z-score turned out to be 0.00497.
As to `Cc1c(C(=O)N2CCN(c3ccccc3)CC2)sc2ncnc(N3CCN(c4ccccc4)CC3)c12`, the z-score was -0.123.
To `COc1ccc(NC(=O)c2ccc(-n3nc(C)cc3C)cc2)cc1OC` belongs -0.503; to `COc1ccc(-c2onc(C)c2-c2ccccc2)c(O)c1`, -0.108; to `CC(C)C12CN3CC(C(C)C)(CN(C1)C3c1ccco1)C2=O` (stereo not given), 0.719.
In the case of `Cc1ccc(-c2csc(NC(=O)c3cccs3)n2)cc1`, the z-score is -0.149.
With `CC(C)c1ccc(CNc2cc(N3CCCC3)ccc2[N+](=O)[O-])cc1` the figure was -0.15; with `CC1Cc2ccccc2N1S(=O)(=O)c1cccc2nsnc12` (stereo not given), -0.775.
With `COC(=O)c1ccc(OCC(=O)c2ccccc2)cc1` the figure was 0.276; with `Cc1ccc2nc(SCC(=O)Nc3cccc([N+](=O)[O-])c3)[nH]c2c1`, -0.186.
`Cc1ccc(/C=C/C(=O)NCCCN2CCN(CCCNC(=O)/C=C/c3ccc(C)cc3)CC2)cc1` returned a z-score of -0.22.
Take `Cc1cc(S(=O)(=O)Nc2ccc3ccccc3c2)c(C)s1`: the z-score is 0.00286.
With `O=C(O)CCSc1nc(C(F)(F)F)cc(=O)n1-c1ccccc1` the figure was -0.505; with `COC(=O)c1sc2nc(-c3ccccc3)nc(N3CCN(C)CC3)c2c1C`, 0.19; with `C/C(CC(=O)NCC(C)C)=N\NC(=O)COc1cc(C)c(Br)cc1Br`, active: 5.36.
`Cc1cc(NC(=O)c2c([N+](=O)[O-])c(C)nn2C)no1` came in with a z-score of -0.146.
